{
  "source": "patent US20250197490A1",
  "about": "“ANTI-CORTICOTROPIN-RELEASING HORMONE ANTIBODIES AND USE IN CONGENITAL ADRENAL HYPERPLASIA” (HBM ALPHA THERAPEUTICS, INC., priority 2021, published 2025)",
  "key": {"CRH": {"biological_target": "T1, CRH (Homo sapiens, UniProt P06850)", "T1 construct": "CRH is a 41-amino acid peptide derived by enzymatic cleavage from a 196-amino acid preprohormone", "T1 sequence (P06850 154-194)": "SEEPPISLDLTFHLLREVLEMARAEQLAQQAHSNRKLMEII", "experiment": "CRH ELISA binding (NT-biotin / CT-biotin CRH)", "conditions": "in words", "procedure": "ELISA plates were coated with 5 μg/ml streptavidin in phosphate buffered saline (PBS) (Sigma 189730-1 mg) at 4° C. overnight or at room temperature (RT) for 2 hours. 50 μl/well was used for 96-well plates, or less for 384-well plates. After incubation, the strepavidin solution was removed and biotinylated peptide was added (ThermoFisher, biotin is at the N terminus of the peptide). Following incubation for 30 min at RT, plates were washed with 1× phosphate buffered saline (PBS)/0.1% Tween-20 and blocked with 1% milk/1% bovine serum albumin (BSA) in washing solution. Following a wash in 3×PBS/0.1% Tween-20, 50 μl of antibody was added in blocking buffer and incubated at RT for 2 hours. Plates were then washed in 3×PBS/0.1% Tween-20, and 50 μl of anti-rat IgG-HRP (horseradish peroxidase) at a 1:2,000 dilution was added and incubated at RT for 2 hours. Following a wash in 3×PBS/0.1% Tween-20, 50 μl peroxidase substrate (POD or equivalent) was added and absorbance was measured at 450 nm.\nStreptavidin (Thermo, Cat: 21125) was diluted in PBS to a concentration of 2 μg/ml. […] 100 μL of ELISA stopping solution (Solarbio, Cat #: C1058) was added to terminate the reaction, and the optical density at 450 nm (OD450 nm) was determined by an ELISA plate reader (Molecular Devices, Spectra max 384 plus)."}, "[1]": {"test_system": "wildtype female C57BL/6 mice", "experiment": "Wildtype mice restraint-stress model (ACTH and corticosterone)", "assay_type": "in vivo, mouse", "conditions": "mAb 20 mg/kg IP", "procedure": "8-10 week old wildtype female C57BL/6 mice were obtained from Charles River Laboratories. Mrap1 KO mice were obtained from Queen Mary University of London, UK. SSR125543A, a small molecule CRHR1 antagonist, was obtained from Axon Medchem (Cat #Axon 1799). Mouse Corticosterone (55-Corms-E01) and adrenocorticotropic hormone (ACTH) ELISA kits (21-ACTHU-E01) were obtained from ALPCO, USA. All procedures were carried out in accordance with the Guide for the Care and Use of Laboratory Animals of the National Institutes of Health. Protocols were approved by Charles River Laboratories Institutional Animal Care and Use Committee (IACUC).\nTo determine the effect of nonpainful physical restraint upon stress responses, mice were restrained in 50 ml polypropylene ventilated tubes in which the tip was cut off with a razor blade to allow the mouse to breathe easily for 15-20 minutes. A mouse was directed to the open tube and crawled in. A piece of paper towel was put behind the mouse so that it could not back out, and the cap was screwed on. The mouse was placed back in its cage, ventral size down on the bedding. This stressor is not considered painful, as mice are confined to a limited space (in a ventilated restraint tube) but not in an unnatural physical position. The investigator was present in the room during the entire procedure. At the end of the procedure, the mouse was removed by the tail. […]"}, "Mrap1 KO mice": {"test_system": "Mrap1 KO mice", "experiment": "Mrap1 KO mice constitutively high ACTH model", "assay_type": "in vivo, mouse", "conditions": "single dose of mAb 20 mg/kg"}},
  "data": [
    {"molecule": "PR006745: ΔPTM variant of PR006669 (antibody) heavy: EVQLVESGGGLVQPGGSLRLSCAASGFTFSDNWMSWVRQAPGKGLEWVANIKQDASENYYVDSVKGRFTISRDNAKNSLYLQMNSLRAEDTAVYYCSRGLALWGWGQGTLVTVSS[human IgG1 constant region cut from this listing] light: DIVMTHSPLSLPVTPGDPASISCRSSQSLLHSTGYNYLDWYLQKPGQSPQLLIYLGSNRASGVPDRFSGSGSGTDFTLKFIRVEAEDVGVYYCMQALQTPYTFGQGTKLEIKRTVAAPSVFIFPPSDEQLKSGTASVVCLLNNFYPREAKVQWKVDNALQSGNSQESVTEQDSKDSTYSLSSTLTLSKADYEKHKVYACEVTHQGLSSPVTKSFNRGEC", "values": [
      {"measurement": "ELISA binding activities to CRH", "setting": "CRH", "result": "somewhat weaker"}
    ]},
    {"molecule": "PR006152: Series 1 anti-CRH mAb (antibody) heavy: EVQLVESGGVLVQPGGSLRLSCAASGFTFSSYWMTWVRQAPGKGLEWVANIKQDSSEKYYVDSVKGRFTISRDNAKNSLFLQMNSLRAEDTAVYYCARTLIFDYWGQGTLVTVSS[human IgG1 constant region cut from this listing] light: DIVMTQSPLSLPVTPGEPASISCRSSQSLLHSTGYNPLEWYLQKPGQSPQLLIYLGSNRASGVPDRFSGSGSGTDFTLKISRVEAEDVGIYYCMQTLQTPITFGQGTRLEIKRTVAAPSVFIFPPSDEQLKSGTASVVCLLNNFYPREAKVQWKVDNALQSGNSQESVTEQDSKDSTYSLSSTLTLSKADYEKHKVYACEVTHQGLSSPVTKSFNRGEC", "values": [
      {"measurement": "restraint-induced ACTH concentration", "setting": "[1]", "result": "markedly inhibited"},
      {"measurement": "restraint-induced corticosterone concentration", "setting": "[1]", "result": "markedly inhibited"}
    ]},
    {"molecule": "PR006746: ΔPTM variant of PR006669 (antibody) heavy: EVQLVESGGGLVQPGGSLRLSCAASGFTFSDNWMSWVRQAPGKGLEWVANIKQDSSENYYVDSVKGRFTISRDNAKNSLYLQMNSLRAEDTAVYYCSRGLALWGWGQGTLVTVSS[human IgG1 constant region cut from this listing] light: DIVMTHSPLSLPVTPGDPASISCRSSQSLLHSTGYNYLDWYLQKPGQSPQLLIYLGSNRASGVPDRFSGSGSGTDFTLKFIRVEAEDVGVYYCMQALQTPYTFGQGTKLEIKRTVAAPSVFIFPPSDEQLKSGTASVVCLLNNFYPREAKVQWKVDNALQSGNSQESVTEQDSKDSTYSLSSTLTLSKADYEKHKVYACEVTHQGLSSPVTKSFNRGEC", "values": [
      {"measurement": "ELISA binding activities to CRH", "setting": "CRH", "result": "somewhat weaker"}
    ]},
    {"molecule": "PR302341-55: Series 10 mAb, PTM-removed humanized variant, scaled up for in vivo studies (protein) heavy chain: QVQLVQSGAEVKKPGASVKVSCKASGYTFTDYFMKWVRQAPGQRLEWMGVINPNNADIFYNQKFKGRVTITRDTSASTAYMELSSLRSEDTAVYYCARGTDRALFAYWGQGTLVTVSS[human IgG1 constant region cut from this listing] light chain: DVVMTQSPLSLPVTLGQPASISCRSGQSIVHSDGNTYLEWYQQRPGQSPRLLIYKVSNRFSGVPDRFSGSGSGTDFTLKISRVEAEDLGVYYCFQGSHIPWTFGGGTKVEIKRTVAAPSVFIFPPSDEQLKSGTASVVCLLNNFYPREAKVQWKVDNALQSGNSQESVTEQDSKDSTYSLSSTLTLSKADYEKHKVYACEVTHQGLSSPVTKSFNRGEC", "values": [
      {"measurement": "plasma ACTH concentration in Mrap1 KO mice", "setting": "Mrap1 KO mice", "result": "markedly reduced"}
    ]},
    {"molecule": "PR302341-60: Series 10 mAb, PTM-removed humanized variant, scaled up for in vivo studies (protein) heavy chain: QVQLVQSGAEVKKPGASVKVSCKASGYTFTDYFMKWVRQAPGQRLEWMGVINPNQGDIFYNQKFKGRVTITRDTSASTAYMELSSLRSEDTAVYYCARGTDRALFAYWGQGTLVTVSS[human IgG1 constant region cut from this listing] light chain: DVVMTQSPLSLPVTLGQPASISCRSGQSIVHSDANTYLEWYQQRPGQSPRLLIYKVSNRFSGVPDRFSGSGSGTDFTLKISRVEAEDLGVYYCFQGSHIPWTFGGGTKVEIKRTVAAPSVFIFPPSDEQLKSGTASVVCLLNNFYPREAKVQWKVDNALQSGNSQESVTEQDSKDSTYSLSSTLTLSKADYEKHKVYACEVTHQGLSSPVTKSFNRGEC", "values": [
      {"measurement": "plasma ACTH concentration in Mrap1 KO mice", "setting": "Mrap1 KO mice", "result": "markedly reduced"}
    ]}
  ]
}
